Test results from paper PMC4242493.
The other results are listed elsewhere or left out. The list includes weakly bound sequences.

The sequences below were run against MaxL homodimer (UniProt P61244) (assay: universal protein-binding microarray (PBM)). Details: PBS-based mixture, 10 nM His-tagged protein dimer, 2% milk, 200 ng/uL BSA, 50 ng/uL salmon testes DNA, 0.02% TX-100; detection with Alexa 488 anti-His …; high values mean tight binding; most listed sequences are background and not binding sites; double strand, one strand shown.
Sequence of UniProt P61244 (P61244 whole entry): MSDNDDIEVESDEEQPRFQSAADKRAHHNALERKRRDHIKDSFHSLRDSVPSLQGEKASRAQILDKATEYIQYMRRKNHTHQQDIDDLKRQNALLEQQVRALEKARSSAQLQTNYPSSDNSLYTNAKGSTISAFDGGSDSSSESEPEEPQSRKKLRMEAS

Sequence	binding signal (normalized occupancy)
ACCTTAGT	0.0723
AAAGAGTA	0.0749
CCCTCCGC	0.0699
CTACTTTC	0.0724
CCGGGGCA	0.0681
GGATCACA	0.0829
AGCAGTTG	0.0704
GAGTGATA	0.0802
CACTCCGG	0.077
AACCCTTG	0.0716
CGTGTGTA	0.0944
AGCGCTTA	0.0704
AAGAAATG	0.0795
ACGTAGGA	0.0763
AACTGGAT	0.0715
GGCCGTCA	0.0676
GTTTAGGA	0.0787
GAACATTC	0.073
AGGGCCAA	0.0686
ACCAGGTC	0.0714
CTCTAAGA	0.0766
CCTTTGCC	0.0712
CAAGAGTA	0.0757
TAGGTTAA	0.0744
AGTCTGTC	0.0725

Sequence	binding signal (normalized occupancy)
CTACGCAA	0.0703
AGTAACCA	0.0736
GAGCGCTC	0.0657
ATGTAGTA	0.0852
CTAATAGA	0.0765
CGATGTAC	0.0857
AAGCTGAA	0.0694
CGAATGTC	0.074
GCGTGGAA	0.106
CCGATAAC	0.0784
TGCGGACA	0.0827
CCCATCCG	0.078
CGGACAAA	0.0761
CAAACTCA	0.0693
ATCCGTCG	0.0729
TCGGTCCA	0.0746
ACCGTCAA	0.0676
ACCGCGAC	0.0704
CCCTTCCG	0.0757
GAATGACA	0.0776
CTTCACCA	0.085
ACACGGCC	0.0719
CAGGAGTA	0.0702
ACTTTAGC	0.0733
GAGGGTCA	0.0732

Sequence	binding signal (normalized occupancy)
AAAACCAC	0.0831
ACCCCCCT	0.0827
GTTACATA	0.0831
AAAGATAT	0.0774
CCAGCAGG	0.0704
CGACACCC	0.0753
AACCAACC	0.0803
ACCCTCCA	0.0761
CCTTTTAG	0.0677
GGGTGAAA	0.0768
GGTTACAC	0.0762
ACGACTTG	0.0738
CCATCCCA	0.0843
GCTCCGAC	0.0713
CACGATAG	0.0854
GGAGACAA	0.0754
AAACACTT	0.074
CCAACACG	0.09
CTGGTCGC	0.0732
CGCAGTGA	0.0713
CAGGCTAA	0.0733
GTCGGTGA	0.0767
CCATATCC	0.0911
AGTGCGGC	0.0733
ATAAGGTA	0.0816

Sequence	binding signal (normalized occupancy)
AATGAACG	0.0824
AAATGCCG	0.0733
CAGATCCC	0.0769
CCATAACG	0.0785
CACGACCG	0.0808
CAGGGAGC	0.0716
TAGTACCA	0.074
CTCGTGGA	0.103
GGAAGAAC	0.0768
AAGTTTGA	0.0728
CCAGTAGC	0.0653
CACCGATC	0.0738
ATGTGATC	0.0964
ACACCATG	0.0916
CCGGACCC	0.0706
GCAACGGC	0.07
CACTCAAG	0.0744
GACCACGA	0.0865
GGCTCAAC	0.0722
ACCGTAAA	0.0786
GCGAGGGA	0.0782
AAGCCGGA	0.065
TAAACCAA	0.0701
ACTCAGGA	0.0719
GATGGAGA	0.0786

Sequence	binding signal (normalized occupancy)
TCTTGAAA	0.066
CGAGCGAG	0.0704
GACAAAGC	0.0683
CGGACGAG	0.0688
ACTCGCCT	0.0753
AACCCACT	0.0715
CTATGCCA	0.0777
CACGCTAG	0.0976
CGTCCAAG	0.0698
CCGGGAAA	0.0696
TAAAGCAA	0.0737
GTAATTAA	0.0749
AGGCTTTC	0.0709
CGACGGAC	0.0689
GCTCCTAA	0.0767
CCCCACAA	0.0805
GTGTCATA	0.0871
CTAGTAGC	0.0716
ATAACTAC	0.0842
GATACGCC	0.0691
ATGGATAA	0.0886
AGTTCAAA	0.0684
GTAAGCGA	0.0718
GGGCACGA	0.0767
CAAGTCGC	0.0719

Sequence	binding signal (normalized occupancy)
GGTTGAGA	0.0711
CCGGAGAC	0.0732
CCCTAAAG	0.0716
ATTCCACA	0.0794
AACTTGGT	0.0721
AAGCCCTT	0.0701
GGGACAAC	0.0753
CCGGCAGA	0.0655
CGTTCCAG	0.0685
CCGATTGA	0.0737
CTTTTAAA	0.0734
GGTCAACC	0.0682
TGGTTACA	0.0825
GTCGCACA	0.0775
ATGCTAGC	0.0843
ACGCAGTC	0.0707
CCACGAAC	0.0761
CGACCTAA	0.0709
AAACAGTC	0.0722
AACCAACA	0.07
CGTTTTAA	0.0707
ATCAACAA	0.0796
GTGATTTA	0.0772
ACCACGCG	0.187
GACTCCGC	0.0741

Sequence	binding signal (normalized occupancy)
CTAGGCCC	0.0764
ATCCCAGC	0.0757
ATAGGCCC	0.0766
ACTTGCCG	0.0742
AAGCCTAA	0.0724
ATGTGAAC	0.0883
GCCGGCCC	0.0678
CCCCCCCC	0.0924
ATACGAAC	0.0781
AAGAAGCA	0.0757
ACTCGGTA	0.0735
GACGCGTC	0.0757
CCTGAAAC	0.0731
ACGGTATA	0.0777
AGTCACGA	0.0912
AAGCGGAC	0.0691
CTGCCCAA	0.0752
ATTCGCCG	0.0715
CGTCCTAG	0.0707
CTTTGTGC	0.0748
CGCTGCAG	0.0694
CAAGCGTC	0.0702
CTCCTGTC	0.0719
TACTGAGA	0.0751
AGTGGCCG	0.072

Sequence	binding signal (normalized occupancy)
ATATAGAA	0.0868
CATCGTCA	0.0757
AACTAAGA	0.0758
GCCGATGA	0.0713
GCACGGGC	0.0761
CGCTTGGA	0.0727
GAACACTA	0.0739
AATAATCT	0.0762
GATACGAC	0.0742
CAGGTCAC	0.0772
AAAACGAA	0.0697
ATAAGTAG	0.0743
CATCGTGC	0.0886
GCGACCCA	0.0734
ATTCTCAG	0.0751
ACCTTAAA	0.0726
CGCTTAAC	0.0754
ACGTTTGC	0.0802
ACGTAACT	0.0731
CCGAGTAC	0.0694
GTCCCATA	0.0779
CCTGTTCA	0.0778
GTTGTGAA	0.0763
TCTGATCA	0.0721
GTGCCAAA	0.0704

Sequence	binding signal (normalized occupancy)
AGGTGTGG	0.0847
GGGTCTAC	0.0725
CATTCTGA	0.076
GTAGGTTA	0.0763
GACCGCAC	0.0744
GGTTTTGA	0.0713
CCAGCCCG	0.073
ATCGATGA	0.0821
CGGCACTA	0.0762
TGAGTTAA	0.078
AGTGCGTG	0.0902
CCCACGGG	0.0859
CAAAGGCA	0.0733
ACGTGGGG	0.0991
ACCAGACT	0.0722
AATAGTAG	0.0778
CACGTCTG	0.0814
CTTAAGTA	0.0743
ACCCATCA	0.0855
